Measurements from PMC4336329 (PLoS ONE, 2015).
The campaign covered roughly 310,000 compounds. About 14,000 (4.5%) showed an effect of 50% or more. The effect is printed as a negative number. The list shows a part of the results.
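Note: peak tail current of the secondary pulse compared with the same well before compound.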

These compounds were tested against human ether-à-go-go-related gene (hERG) potassium channel (human, UniProt Q12809) (assay: primary screen, population patch clamp on CHO cells stably expressing hERG).
Chain of human ether-à-go-go-related gene (hERG) potassium channel (Q12809 whole entry, looked up): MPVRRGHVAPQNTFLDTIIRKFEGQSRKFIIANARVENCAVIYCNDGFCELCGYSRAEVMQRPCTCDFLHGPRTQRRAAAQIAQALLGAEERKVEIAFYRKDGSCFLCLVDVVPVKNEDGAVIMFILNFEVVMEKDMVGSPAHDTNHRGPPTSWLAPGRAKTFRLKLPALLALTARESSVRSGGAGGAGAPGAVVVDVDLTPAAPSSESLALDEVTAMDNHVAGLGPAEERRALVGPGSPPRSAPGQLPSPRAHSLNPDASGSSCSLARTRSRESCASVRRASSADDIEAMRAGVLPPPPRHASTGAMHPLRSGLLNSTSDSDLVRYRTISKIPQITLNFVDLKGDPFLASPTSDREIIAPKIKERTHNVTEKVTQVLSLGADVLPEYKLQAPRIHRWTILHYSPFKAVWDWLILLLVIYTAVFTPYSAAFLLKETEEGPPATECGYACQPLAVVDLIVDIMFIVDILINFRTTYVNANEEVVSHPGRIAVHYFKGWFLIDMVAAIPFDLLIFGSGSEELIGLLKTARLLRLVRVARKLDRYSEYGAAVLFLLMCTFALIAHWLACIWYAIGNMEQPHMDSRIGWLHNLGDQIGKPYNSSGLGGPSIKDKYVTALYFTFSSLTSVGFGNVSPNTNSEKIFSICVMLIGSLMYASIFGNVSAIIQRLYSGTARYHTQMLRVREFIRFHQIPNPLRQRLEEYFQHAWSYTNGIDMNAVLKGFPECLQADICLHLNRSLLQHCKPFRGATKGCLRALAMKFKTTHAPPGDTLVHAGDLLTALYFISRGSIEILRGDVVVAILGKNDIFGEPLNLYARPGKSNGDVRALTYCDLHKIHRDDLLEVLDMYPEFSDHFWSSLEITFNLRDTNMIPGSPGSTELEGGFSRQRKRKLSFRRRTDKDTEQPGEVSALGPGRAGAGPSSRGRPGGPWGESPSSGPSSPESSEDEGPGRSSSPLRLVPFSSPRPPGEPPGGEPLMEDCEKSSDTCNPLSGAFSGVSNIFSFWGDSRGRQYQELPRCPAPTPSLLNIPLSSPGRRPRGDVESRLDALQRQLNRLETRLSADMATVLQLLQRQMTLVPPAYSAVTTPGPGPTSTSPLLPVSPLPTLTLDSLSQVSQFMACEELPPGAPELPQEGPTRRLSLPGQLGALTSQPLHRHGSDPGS
In the case of `CCOc1ccc(C2=[N+]([O-])C(C)(C)N(O)C2(C)C)cc1`, the “hERG current change (%, negative = inhibition) at 10uM” value is reported as 2.54%. With `CCn1c(SCC(=O)NC2CCCCC2C)nnc1-c1ccc(OC)cc1` (stereo not drawn) the “hERG current change (%, negative = inhibition) at 10uM” value was -12.8%. With `O=C1CCCC2=C1C(c1ccc(Cl)cc1)C1C(=O)c3ccccc3C1=N2` (stereo not drawn) the “hERG current change (%, negative = inhibition) at 10uM” value was -7.96%. With `COc1cc2c(cc1OC)C(c1cccs1)N(C(=O)c1cccnc1)CC2` (stereo not drawn) the “hERG current change (%, negative = inhibition) at 10uM” value was -54.9%. With `COc1ccc(OC2CCN(S(=O)(=O)c3ccc(OC)c(OC)c3)CC2)cc1` the “hERG current change (%, negative = inhibition) at 10uM” value was -30.9%. In the case of `COc1ccccc1NC(=O)NCCN1CCN(c2cccc(Cl)c2)CC1`, the “hERG current change (%, negative = inhibition) at 10uM” value is reported as -9.6%. For `Br.Cc1cccc(N2C(=O)SC(SC(=Nc3ccccc3)Nc3ccccc3)C2=O)c1` (stereo not drawn), the “hERG current change (%, negative = inhibition) at 10uM” value was 15.3%. For `CCOc1ccccc1Nc1nc(N)nc(CN2CCCCC2C)n1` (stereo not drawn), the “hERG current change (%, negative = inhibition) at 10uM” value was -50%. For `COc1ccc(C2C(C(=O)OCC(=O)N3CCCCC3)CCC(=O)N2c2ccc(OC)cc2)cc1` (stereo not drawn), the “hERG current change (%, negative = inhibition) at 10uM” value was -13.3%. `COc1ccccc1Oc1ccc(NC(=O)c2ccc(Cl)cc2)cc1` was tested, and the “hERG current change (%, negative = inhibition) at 10uM” value was 18.1%. For `Cc1nn(C)cc1CNC(=O)c1cccc(Cl)c1`, the “hERG current change (%, negative = inhibition) at 10uM” value was -2.62%. With `COc1cc2c(cc1OC)/C(=C/C(=O)c1ccc(F)cc1)NCC2` the “hERG current change (%, negative = inhibition) at 10uM” value was -19.5%. In the case of `O=C(CNC(=O)c1ccc(-c2ccccc2)cc1)OCc1c(F)cccc1Cl`, the “hERG current change (%, negative = inhibition) at 10uM” value is reported as 17.3%. In the case of `Cc1ccsc1C1NC(=O)c2c(sc3c2CCN(C)C3)N1` (stereo not drawn), the “hERG current change (%, negative = inhibition) at 10uM” value is reported as -6.6%. In the case of `O=C(Nc1ccccc1C(=O)N1CCOCC1)C1CC(=O)N(c2ccc(F)cc2)C1` (stereo not drawn), the “hERG current change (%, negative = inhibition) at 10uM” value is reported as -0.294%. With `Cc1cc([N+](=O)[O-])nn1CCCC(=O)NC(C)c1ccccc1` (stereo not drawn) the “hERG current change (%, negative = inhibition) at 10uM” value was -7.05%. In the case of `Cc1coc2cc3oc(=O)c(CCC(=O)NCCCn4ccnc4)c(C)c3cc12`, the “hERG current change (%, negative = inhibition) at 10uM” value is reported as -41.4%. `Cc1ccc(C2C(C#N)=C(N)SC(N)=C2C#N)o1` was tested, and the “hERG current change (%, negative = inhibition) at 10uM” value was -4.47%. `CC(C)(C)N(Cc1cc2ccccc2[nH]c1=O)C(=O)C1CCCCC1` was tested, and the “hERG current change (%, negative = inhibition) at 10uM” value was -11.9%. In the case of `CC1=C(C(N)=O)C(c2sccc2C)n2nnnc2N1` (stereo not drawn), the “hERG current change (%, negative = inhibition) at 10uM” value is reported as 11.1%. `O=C(CCl)N(c1ccccc1)C1CCS(=O)(=O)C1` (stereo not drawn) was tested, and the “hERG current change (%, negative = inhibition) at 10uM” value was 1.75%. With `CC1CCC2(CC1)NC(=O)N(CC(=O)Nc1cccc(C#N)c1)C2=O` (stereo not drawn) the “hERG current change (%, negative = inhibition) at 10uM” value was 9.8%. In the case of `CN(CC(=O)NC1CCCCC1)S(=O)(=O)c1ccc(Br)s1`, the “hERG current change (%, negative = inhibition) at 10uM” value is reported as 20.1%. With `Cc1cccc(OCCCCN2CCNCC2)c1` the “hERG current change (%, negative = inhibition) at 10uM” value was 14.2%. In the case of `C/C(=N\NC(=O)c1nnn(-c2nonc2N)c1CSc1ccc(C)cc1)c1ccco1`, the “hERG current change (%, negative = inhibition) at 10uM” value is reported as -9.04%. In the case of `O=C(c1ccccc1)N1CCN2C(=O)c3ccccc3C12c1ccc(Cl)cc1` (stereo not drawn), the “hERG current change (%, negative = inhibition) at 10uM” value is reported as -25%. For `COc1cc(NC(=O)NCC2CCN(Cc3ccccc3F)CC2)cc(OC)c1`, the “hERG current change (%, negative = inhibition) at 10uM” value was -14.9%. With `Cc1csc(NC(=O)CSc2nc(C)nc3c2c(=O)n(C)c(=O)n3C)n1` the “hERG current change (%, negative = inhibition) at 10uM” value was -31.3%. `CCN(C(=O)Cc1c(C(=O)O)n(CC)c2ccccc12)c1ccccc1C` was tested, and the “hERG current change (%, negative = inhibition) at 10uM” value was 23.1%. With `NC(=O)c1sc2nc3c(c(-c4ccco4)c2c1N)CCCC3` the “hERG current change (%, negative = inhibition) at 10uM” value was -9.55%. For `CC12CS(=O)(=O)CC1SC(=S)N2c1ccccn1` (stereo not drawn), the “hERG current change (%, negative = inhibition) at 10uM” value was 5.32%. For `O=C(Nc1cccnc1Cl)c1cc(-c2ccc(F)cc2)on1`, the “hERG current change (%, negative = inhibition) at 10uM” value was 27.3%. With `COC(=O)c1c(NC(=O)CCNCc2ccco2)sc2c1CCC2.O=C(O)C(=O)O` the “hERG current change (%, negative = inhibition) at 10uM” value was -7.76%. For `CC(C)Cc1nnc(NC(=O)C2CSC3(C)CCC(=O)N23)s1` (stereo not drawn), the “hERG current change (%, negative = inhibition) at 10uM” value was -12.4%. `CC(C)c1c(C(=O)N/N=C/c2ccccc2C(=O)O)nnn1-c1nonc1N` was tested, and the “hERG current change (%, negative = inhibition) at 10uM” value was 4.51%. In the case of `O=C(NCc1cccs1)C1CCC(=O)N(Cc2cccc(C(F)(F)F)c2)C1` (stereo not drawn), the “hERG current change (%, negative = inhibition) at 10uM” value is reported as -27.5%. With `CC(=O)Oc1ccccc1C(=O)NC(C)CCc1ccccc1` (stereo not drawn) the “hERG current change (%, negative = inhibition) at 10uM” value was -33.4%. For `CCOCCCN(C(=O)c1snc(C(N)=O)c1N)C(C(=O)NC1CCCC1)c1ccc(O)c(OC)c1` (stereo not drawn), the “hERG current change (%, negative = inhibition) at 10uM” value was 13.5%. `CCN1CCN(C(=O)c2[nH]c3ccc(OC)cc3c2C)CC1` was tested, and the “hERG current change (%, negative = inhibition) at 10uM” value was -2.17%. With `CCN(CC)CCCNC(=O)CCc1c(C)n(CC)c2cc(-c3ccccc3OC)nn2c1=O` the “hERG current change (%, negative = inhibition) at 10uM” value was 28.4%. For `CC1=[N+]([O-])C(C)(C)C(c2ccc(Br)cc2)=[N+]1[O-]`, the “hERG current change (%, negative = inhibition) at 10uM” value was 1.58%. With `C=CCNC(=O)c1c(CSc2ccccc2)noc1C(=O)NCc1ccccc1` the “hERG current change (%, negative = inhibition) at 10uM” value was 8.01%. For `CC1=NNC(=O)C1CCC(=O)N/N=C\c1ccccc1[N+](=O)[O-]` (stereo not drawn), the “hERG current change (%, negative = inhibition) at 10uM” value was 0.38%. For `NC(=O)N/N=C/c1ccc(-n2nncc2-c2ccc(Cl)cc2)cc1`, the “hERG current change (%, negative = inhibition) at 10uM” value was -17.5%. In the case of `COc1cc(CC(=O)OCC(=O)Nc2cc([N+](=O)[O-])ccc2F)cc(OC)c1OC`, the “hERG current change (%, negative = inhibition) at 10uM” value is reported as -38.9%.
